Reference: the supplement of paper PMC8728848
The other results are listed elsewhere or left out.

Tests used:
Assay in all cases: glycan array binding signal (z-score within array); higher = stronger binding
Settings in all cases: glycan notation: IUPAC condensed, linker removed
[1] = target: Gal(b1-4)GlcNAc(b1-3)Gal(b1-4)GlcNAc(b1-3)Gal(b1-4)GlcNAc
Procedure, shortened: (§1)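 Glycan array binding is given as a within-array Z-score, which can be read as non-binding when negative. The arrays, 3228 of them, came from the Consortium for Functional Glycomics database and were retained only where the protein sequence was available. Z-scores were averaged across arrays of the same protein sequence at different concentrations or buffers and across linkers.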

[2] = target: Gal(b1-4)GlcNAc(b1-3)Gal(b1-4)GlcNAc(b1-3)Gal(b1-4)GlcNAc(b1-2)Man(a1-3)[Gal(b1-4)GlcNAc(b1-3)Gal(b1-4)GlcNAc(b1-3)Gal(b1-4)GlcNAc(b1-2)Man(a1-6)]Man(b1-4)GlcNAc(b1-4)GlcNAc
Procedure, shortened: as §1

[3] = target: Gal(b1-4)GlcNAc(b1-3)Gal(b1-4)GlcNAc(b1-3)Gal(b1-4)GlcNAc(b1-2)Man(a1-3)[Gal(b1-4)GlcNAc(b1-3)Gal(b1-4)GlcNAc(b1-3)Gal(b1-4)GlcNAc(b1-2)Man(a1-6)]Man(b1-4)GlcNAc(b1-4)[Fuc(a1-6)]GlcNAc
Procedure, shortened: as §1

[4] = target: Gal(b1-4)GlcNAc(b1-3)Gal(b1-4)GlcNAc(b1-3)Gal(b1-4)GlcNAc(b1-2)[Gal(b1-4)GlcNAc(b1-3)Gal(b1-4)GlcNAc(b1-3)Gal(b1-4)GlcNAc(b1-6)]Man(a1-6)[Gal(b1-4)GlcNAc(b1-3)Gal(b1-4)GlcNAc(b1-3)Gal(b1-4)GlcNAc(b1-2)Man(a1-3)]Man(b1-4)GlcNAc(b1-4)[Fuc(a1-6)]GlcNAc
Procedure, shortened: as §1

[5] = target: Gal(b1-4)GlcNAc(b1-3)Gal(b1-4)GlcNAc(b1-3)Gal(b1-4)GlcNAc(b1-3)Gal(b1-4)GlcNAc(b1-2)Man(a1-3)[Gal(b1-4)GlcNAc(b1-3)Gal(b1-4)GlcNAc(b1-3)Gal(b1-4)GlcNAc(b1-3)Gal(b1-4)GlcNAc(b1-2)Man(a1-6)]Man(b1-4)GlcNAc(b1-4)GlcNAc
Procedure, shortened: as §1

[6] = target: Gal(b1-4)GlcNAc(b1-3)Gal(b1-4)GlcNAc(b1-3)Gal(b1-4)GlcNAc(b1-3)Gal(b1-4)GlcNAc(b1-2)Man(a1-3)[Gal(b1-4)GlcNAc(b1-3)Gal(b1-4)GlcNAc(b1-3)Gal(b1-4)GlcNAc(b1-3)Gal(b1-4)GlcNAc(b1-2)Man(a1-6)]Man(b1-4)GlcNAc(b1-4)[Fuc(a1-6)]GlcNAc
Procedure, shortened: as §1

[7] = target: Gal(b1-4)GlcNAc(b1-3)Gal(b1-4)GlcNAc(b1-3)Gal(b1-4)GlcNAc(b1-3)Gal(b1-4)GlcNAc(b1-2)[Gal(b1-4)GlcNAc(b1-3)Gal(b1-4)GlcNAc(b1-3)Gal(b1-4)GlcNAc(b1-3)Gal(b1-4)GlcNAc(b1-6)]Man(a1-6)[Gal(b1-4)GlcNAc(b1-3)Gal(b1-4)GlcNAc(b1-3)Gal(b1-4)GlcNAc(b1-3)Gal(b1-4)GlcNAc(b1-2)Man(a1-3)]Man(b1-4)GlcNAc(b1-4)[Fuc(a1-6)]GlcNAc
Procedure, shortened: as §1

[8] = target: Gal(b1-4)GlcNAc(b1-3)Gal(b1-4)GlcNAc(b1-3)Gal(b1-4)GlcNAc(b1-3)Gal(b1-4)GlcNAc(b1-3)Gal(b1-4)GlcNAc(b1-2)Man(a1-3)[Gal(b1-4)GlcNAc(b1-3)Gal(b1-4)GlcNAc(b1-3)Gal(b1-4)GlcNAc(b1-3)Gal(b1-4)GlcNAc(b1-3)Gal(b1-4)GlcNAc(b1-2)Man(a1-6)]Man(b1-4)GlcNAc(b1-4)GlcNAc
Procedure, shortened: as §1

[9] = target: Gal(b1-4)GlcNAc(b1-3)Gal(b1-4)GlcNAc(b1-3)Gal(b1-4)GlcNAc(b1-3)Gal(b1-4)GlcNAc(b1-3)Gal(b1-4)GlcNAc(b1-2)Man(a1-3)[Gal(b1-4)GlcNAc(b1-3)Gal(b1-4)GlcNAc(b1-3)Gal(b1-4)GlcNAc(b1-3)Gal(b1-4)GlcNAc(b1-3)Gal(b1-4)GlcNAc(b1-2)Man(a1-6)]Man(b1-4)GlcNAc(b1-4)[Fuc(a1-6)]GlcNAc
Procedure, shortened: as §1

[10] = target: Gal(b1-4)GlcNAc(b1-3)Gal(b1-4)GlcNAc(b1-3)Gal(b1-4)GlcNAc(b1-3)Gal(b1-4)GlcNAc(b1-3)Gal(b1-4)GlcNAc(b1-2)[Gal(b1-4)GlcNAc(b1-3)Gal(b1-4)GlcNAc(b1-3)Gal(b1-4)GlcNAc(b1-3)Gal(b1-4)GlcNAc(b1-3)Gal(b1-4)GlcNAc(b1-6)]Man(a1-6)[Gal(b1-4)GlcNAc(b1-3)Gal(b1-4)GlcNAc(b1-3)Gal(b1-4)GlcNAc(b1-3)Gal(b1-4)GlcNAc(b1-3)Gal(b1-4)GlcNAc(b1-2)Man(a1-3)]Man(b1-4)GlcNAc(b1-4)[Fuc(a1-6)]GlcNAc
Procedure, shortened: as §1

[11] = target: Gal(b1-4)GlcNAc(b1-3)Gal(b1-4)GlcNAc(b1-3)Gal(b1-4)GlcNAc(b1-3)Gal(b1-4)GlcNAc(b1-3)Gal(b1-4)GlcNAc(b1-3)Gal(b1-4)GlcNAc(b1-2)Man(a1-3)[Gal(b1-4)GlcNAc(b1-3)Gal(b1-4)GlcNAc(b1-3)Gal(b1-4)GlcNAc(b1-3)Gal(b1-4)GlcNAc(b1-3)Gal(b1-4)GlcNAc(b1-3)Gal(b1-4)GlcNAc(b1-2)Man(a1-6)]Man(b1-4)GlcNAc(b1-4)GlcNAc
Procedure, shortened: as §1

[12] = target: Gal(b1-4)GlcNAc(b1-3)Gal(b1-4)GlcNAc(b1-3)GalNAc
Procedure, shortened: as §1

[13] = target: Gal(b1-4)GlcNAc(b1-3)Gal(b1-4)GlcNAc(b1-3)[Gal(b1-4)GlcNAc(b1-3)Gal(b1-4)GlcNAc(b1-6)]GalNAc
Procedure, shortened: as §1

[14] = target: Gal(b1-4)GlcNAc(b1-3)Gal(b1-4)GlcNAc(b1-6)[Gal(b1-3)]GalNAc
Procedure, shortened: as §1

[15] = target: Gal(b1-4)GlcNAc(b1-3)Gal(b1-4)[Fuc(a1-3)]GlcNAc(b1-3)Gal(b1-4)[Fuc(a1-3)]GlcNAc
Procedure, shortened: as §1

[16] = target: Gal(b1-4)GlcNAc(b1-3)GalNAc
Procedure, shortened: as §1

[17] = target: Gal(b1-4)GlcNAc(b1-3)[Fuc(a1-3)GlcNAc(b1-6)]Gal(b1-4)Glc
Procedure, shortened: as §1

[18] = target: Gal(b1-4)GlcNAc(b1-3)[Gal(b1-4)GlcNAc(b1-6)]Gal(b1-4)GlcNAc
Procedure, shortened: as §1

[19] = target: Gal(b1-4)GlcNAc(b1-3)[GlcNAc(b1-6)]Gal(b1-4)GlcNAc
Procedure, shortened: as §1

B1: AT1G15820(2) (Arabidopsis thaliana), Q9LMQ2 (protein)
chain: MAMAVSGAVLSGLGSSFLTGGKRGATALASGVGTGAQRVGRKTLIVAAAAAQPKKSWIPAVKGGGNFLDPEWLDGSLPGDFGFDPLGLGKDPAFLKWYREAELIHGRWAMAAVLGIFVGQAWSGVAWFEAGAQPDAIAPFSFGSLLGTQLLLMGWVESKRWVDFFNPDSQSVEWATPWSKTAENFANYTGDQGYPGGRFFDPLGLAGKNRDGVYEPDFEKLERLKLAEIKHSRLAMVAMLIFYFEAGQGKTPLGALGL
glycan array binding signal (z-score) [1]: -0.434 | glycan array binding signal (z-score) [2]: 0.146 | glycan array binding signal (z-score) [3]: -0.247 | glycan array binding signal (z-score) [4]: -0.163 | glycan array binding signal (z-score) [5]: 0.045 | glycan array binding signal (z-score) [6]: 0.197 | glycan array binding signal (z-score) [7]: 0.178 | glycan array binding signal (z-score) [8]: 0.327 | glycan array binding signal (z-score) [9]: -0.034 | glycan array binding signal (z-score) [10]: 0.166 | glycan array binding signal (z-score) [11]: -0.296 | glycan array binding signal (z-score) [12]: 0.427 | glycan array binding signal (z-score) [13]: 0.337 | glycan array binding signal (z-score) [14]: -0.422 | glycan array binding signal (z-score) [15]: -0.336 | glycan array binding signal (z-score) [16]: -0.445 | glycan array binding signal (z-score) [17]: -0.313 | glycan array binding signal (z-score) [18]: -0.371 | glycan array binding signal (z-score) [19]: -0.237
